Paper PMC11995724, “Antibiotic target discovery by integrated phenotypic and activity-based profiling of electrophilic fragments” (Cell chemical biology, 2025)
The campaign covered roughly 3,200 compounds. About 75 (2%) showed an effect of 50% or more. Some of the results follow.

What follows are molecules tested on T1, S. aureus MSSA476. Settings: relative growth, OD600, TSB; 25 µM; inhibitor.
T1 construct: MSSA476
Set-up: species or system S. aureus MSSA476 (TSB) or V. cholerae SAD30 (LB); 384-well bacterial growth screen at 25 uM, OD600 relative to DMSO control

SMILES | % of control remaining [%]
CC(C#N)Oc1ccc(C=C(C#N)C(=O)Nc2ccccc2Cl)cc1 (centres unmarked) [9-E05, N-(2-chlorophenyl)-2-cyano-3-[4-(1-cyanoethoxy)phenyl]prop-2-enamide] | 124.644
COc1ccc(NC(=O)C(C)Cl)cc1OC (centres unmarked) [6-F12, 2-chloro-N-(3,4-dimethoxyphenyl)propanamide] | 97.3171
Cc1csc(CN2CCN(C(=O)C(C)Cl)CC2)n1 (centres unmarked) [5-H17, 2-chloro-1-{4-[(4-methyl-1,3-thiazol-2-yl)methyl]piperazin-1-yl}propan-1-one] | 111.111
COc1ccc(-c2csc(NC(=O)CCl)n2)c(O)c1 [4-A11, 2-chloro-N-[4-(2-hydroxy-4-methoxyphenyl)-1,3-thiazol-2-yl]acetamide] | 1.1434
COc1ccc(C2CCCN2C(=O)CCl)c(OC)c1 (centres unmarked) [4-P22, 2-chloro-1-[2-(2,4-dimethoxyphenyl)pyrrolidin-1-yl]ethan-1-one] | 106.717
CC(C)Oc1ccccc1C=C(C#N)C(=O)Nc1ccccc1Cl [9-N20, N-(2-chlorophenyl)-2-cyano-3-[2-(propan-2-yloxy)phenyl]prop-2-enamide] | 84.4944
O=C(CCl)NC(c1ccccc1)c1ccco1 (centres unmarked) [4-A08, 2-chloro-N-[(furan-2-yl)(phenyl)methyl]acetamide] | 103.668
CC(Cl)C(=O)NC1(c2ccccc2)CCOCC1 (centres unmarked) [7-A11, 2-chloro-N-(4-phenyloxan-4-yl)propanamide] | 82.8885
COC(=O)c1ccccc1NC(=O)CCl [5-B12, methyl 2-(2-chloroacetamido)benzoate] | 100.911
CC(Cl)C(=O)N1CCNC(=O)C1c1cccs1 (centres unmarked) [6-J17, 4-(2-chloropropanoyl)-3-(thiophen-2-yl)piperazin-2-one] | 119.854
COc1cccc([C@H]2C[C@H](N(C)C(=O)C(C)Cl)C2)c1 (some centres unmarked) [6-B17, 2-chloro-N-methyl-N-[(1r,3r)-3-(3-methoxyphenyl)cyclobutyl]propanamide] | 110.293
O=C(CCl)NCc1[nH]nc2c1CCCC2 [6-E04, 2-chloro-N-[(4,5,6,7-tetrahydro-2H-indazol-3-yl)methyl]acetamide] | 90.4878
CC(NC(=O)CCl)c1ccc2ncsc2c1 (centres unmarked) [6-A18, N-[1-(1,3-benzothiazol-6-yl)ethyl]-2-chloroacetamide] | 94.5854
Cc1noc(C)c1CC(=O)N1CCN(C(=O)C(C)Cl)CC1 (centres unmarked) [6-F11, 2-chloro-1-{4-[2-(3,5-dimethyl-1,2-oxazol-4-yl)acetyl]piperazin-1-yl}propan-1-one] | 92.5366
